In publication PMC12136788:
Some of the results follow.

T1: UNK ZnF1-3 (human, UniProt Q9C0B0 31-174)
T1 sequence: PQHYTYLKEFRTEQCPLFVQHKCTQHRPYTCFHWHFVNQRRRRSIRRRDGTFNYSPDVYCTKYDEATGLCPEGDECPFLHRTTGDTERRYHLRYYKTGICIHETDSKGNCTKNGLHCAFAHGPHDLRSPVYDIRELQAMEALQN

B1: 160131333_160132206_1458_CDS_ENSG00000113810_ENST00000344722|human|control|control (ssRNA)
RNA: GGGAGUUCUACAGUCCGACGAUCUGUAAAUUUUUCUUUAUUCUCCUCAAUAAAUUUUGUAAUUUUAUUCAGUUUCUUUUCUGUAUCUUUUACAUCUUUAUUCUUAGCUUUCAUUUCAUUUGAUAGUAUAUUGCUCUUCUCAUUCAACAGAGGAUUGAGCAUCA
B2: chr5:92386950:92386951:-_ENSMUSG00000029397_ENSMUST00000031345|mus_mus|motif|central (ssRNA)
RNA: GGGAGUUCUACAGUCCGACGAUCCUGCUGGGCAUGUUGGAGUUUUUCACAGUUGAUGCACUGCACUUCCUUGACUUUGAAACGAUCGGGCUGAUGAUCUUCAUUGGUAUCGUGACACAGCCGGCAGGUAUAAAGCUUGUCACACAACAGAGGAUUGAGCAUCA
B3: chr1:58468927:58468928:-_ENSMUSG00000026034_ENSMUST00000148330|mus_mus|mus_mus_mus_hu_False|1_108 (ssRNA)
RNA: GGGAGUUCUACAGUCCGACGAUCAAUCUAUAAUUACGAUGUUCAUUACCUUAGCUAUGUACUUAAUGAACCAAAUUACCCAAACAAAAUAAACAUGGCAAUAUAAAAAUGUUAAGAAUUUACAAAGCUGUACAAAAAGACUGACAACAGAGGAUUGAGCAUCA
B4: chr19:60013232:60013233:-_ENSMUSG00000040022_ENSMUST00000171986|mus_mus|FALSE|FALSE (ssRNA)
RNA: GGGAGUUCUACAGUCCGACGAUCCUUAUCUUUUAAUUUUGCAAAAGGUGAUCUCGUCUUGUCCUUCAUUGACAAGUCAAACAUGCUUGCUGUCAUGUUGUUCCUCAUAAAUUGAAUAUUGACCUUUAUCUCACCCCUGUUUUUCAACAGAGGAUUGAGCAUCA
B5: chr6:41757443:41757444:+_ENSG00000214736_ENST00000398881|hu_mus|hu_hu_hu_mus_False|38_58 (ssRNA)
RNA: GGGAGUUCUACAGUCCGACGAUCGAACCGUGCAGAGGCAACAUCUCAGCCGACACUGGGGGAUGGGGGGGCAGUGGGAAACUAGGCAGGCAAGGAGAAGAAAAGUGCUUCAGCUGCCACUCAGGUAGGAUCUUGUGGUCACAGCAACAGAGGAUUGAGCAUCA
B6: chr12:42180722:42180723:-_ENSMUSG00000036295_ENSMUST00000043884|mus_hu|mus_mus_mus_hu_True|38_38 (ssRNA)
RNA: GGGAGUUCUACAGUCCGACGAUCCUGUAGGAGAAGAAUCUGUGUGUUAGCUGGCAAUCUGGCUGGGAAAGUUAAAAGACCUAAAUCAUUACAAUCCACUGUCGAUGCUUCCAUAUAAAUGGAUCUGGGUGUAAACCAAGGCCUCAACAGAGGAUUGAGCAUCA
B7: 42054337_42054457_7581_CDS_ENSG00000174197_ENST00000570161|human|control|control (ssRNA)
RNA: GGGAGUUCUACAGUCCGACGAUCCUGUUUGCUAAUUCUGGGAGAUAUGUCAAACUCAUCUGAUCCCAUCUUCUUUUUUCUUUUUUGUGCCUCUAGUGCUUGCUGUUUUGCAUAAAUAUACUCUAGCUUCUUCAGGACCACUUCCAACAGAGGAUUGAGCAUCA
B8: chr4:114257803:114257804:+_ENSG00000145362_ENST00000514960|hu_hu|FALSE|FALSE (ssRNA)
RNA: GGGAGUUCUACAGUCCGACGAUCGGAAUGGUCAUGGUAAUUGGUUUGUGGAAUUUUCUUCUUCUAGGUUCCAAAGUGACUAUAGGGCUGAAGGUAGCUUUGUUGCCUAGGAUCUUCUUAACCAGCUCACUGUGCAUAGGUUGACAACAGAGGAUUGAGCAUCA
B9: 29884779_29884899_2625_CDS_ENSMUSG00000074909_ENSMUST00000099525|mouse|control|control (ssRNA)
RNA: GGGAGUUCUACAGUCCGACGAUCUGGCCAUGGCCUACUUGAACAAAUUAGAUUUACAAUUAGUGGGAGUAGCUGCUCAAACCAUGGCAAAAUUUUUUCCUUGUAAGUACUAAAUAAUGAGUGCAAAAUAUCUGAUACUUUGGUCAACAGAGGAUUGAGCAUCA
B10: 22825274_22838584_225_3pUTR_ENSMUSG00000036782_ENSMUST00000035973|mouse|control|control (ssRNA)
RNA: GGGAGUUCUACAGUCCGACGAUCCAUCAUGACUCUGUGCACAGGGUAAGCAUCAUCUGUAUCACCUGGCAUCAGUGUCACAUCACAAAGCAAUCCAUCAAGCCGAAGCUGGUCAAAGCCCUGUAACACCACAGAACUGUGGCUCAACAGAGGAUUGAGCAUCA
B11: 86280069_86281328_2581_CDS_ENSG00000068654_ENST00000263857|human|control|control (ssRNA)
RNA: GGGAGUUCUACAGUCCGACGAUCAUAGUGCGCCUUGUCCAGCACUCCGCAGAGCAGCUCCCCUUCCCUGAUGAUCACCUGGGACUCGCACAUCGAGUCAGGGUUAAAGCCAGGAACGGAUCGAGGAGUUUCCUUCACCCAGGCCAACAGAGGAUUGAGCAUCA
B12: chr12:105536279:105536280:+_ENSG00000136051_ENST00000332180|hu_mus|hu_hu_hu_mus_True|1_8 (ssRNA)
RNA: GGGAGUUCUACAGUCCGACGAUCAGCACUGAACAUGUAAUGUAAUCUGGCUGCAUCGACAGCAUUUUCAUAUACAUCAUCUAAAUAAAUCGGGAAGACAGCGCGAUGCCAGUAUAAAAAACAGCAGUCACAUUGUGUUUGGACCAACAGAGGAUUGAGCAUCA
B13: chrX:140365796:140365797:-_ENSMUSG00000031285_ENSMUST00000033642|mus_mus|mus_mus_mus_hu_False|1_38 (ssRNA)
RNA: GGGAGUUCUACAGUCCGACGAUCCUUCUCAUUACUCAGUGCCUGCAAGGUUCUGGUUCGGUAGAAGCUACAGUGGGCGCUGUGAGUGGGGCUAGGCAGUCCAUUCAUCCGGGAGCCUCGCAUGUUCCUGGAUGUCUUGUCUCGCAACAGAGGAUUGAGCAUCA
B14: chr1:24083500:24083501:+_ENSG00000011007_ENST00000418390|hu_hu|FALSE|FALSE (ssRNA)
RNA: GGGAGUUCUACAGUCCGACGAUCACUGCUGGUGCUUGGGCCAUCAUAGGCCGGCUCCUCAGGGCUGGGGUUAAAGCUGAUGCUACUGGCGGAAGCAUGGCUGCUUCCCAUGGGGUACGGGGCUGGCUUGAUCUUGAUUUUCUCCAACAGAGGAUUGAGCAUCA
B15: chr6:30692278:30692279:+_ENSG00000196230_ENST00000327892|hu_hu|motif|central (ssRNA)
RNA: GGGAGUUCUACAGUCCGACGAUCCCAGAGUGGAAAGAGAGAGGAGACAUUCAACAAACAAGUAUUUAUUGAGCGCCGGCGGUGUGCCAGGCACUGUUCUAGACCCCCCCCAGAAGAAAAAACAAAAAACAAGAUAGAGGCAGCCAACAGAGGAUUGAGCAUCA
B16: chr12:74934348:74934349:+_ENSG00000253719_ENST00000519948|hu_mus|FALSE|FALSE (ssRNA)
RNA: GGGAGUUCUACAGUCCGACGAUCUUUUUUAGCUCCUGCCAAGGUUUUACUCACGUUCUCAAAAUUCUUGGACUAAGGAUCCAAACUGUAACUAGGCCCCAACCCUGAGCUGCAAAACUCUGAGAAGGCAACAACAGACAGUCUCAACAGAGGAUUGAGCAUCA
B17: chr8:59494266:59494267:+_ENSG00000137575_ENST00000447182|hu_mus|FALSE|FALSE (ssRNA)
RNA: GGGAGUUCUACAGUCCGACGAUCAGCCGUGAUGCAUUGUACAAGGGUUUAAACUUCAGGAAUGGUGUGAUCCAUCAGGCUUUUCAUAAUGCUGGGAGCCAUCCGUUUAAUAAUGUGUUCGAAGAUAAAAGUAGGCAUGAUUGUCAACAGAGGAUUGAGCAUCA
B18: 31789926_31820491_1316_CDS_ENSMUSG00000020300_ENSMUST00000109412|mouse|control|control (ssRNA)
RNA: GGGAGUUCUACAGUCCGACGAUCUGACCCCAGACCACUAUGAAGAGGUUGAUCCCCACGGCCAUCAUCCAGGAAUCCAUCUUCCAUCGGAAACAAUGAAGACUGACCUCUCCUUCGCCCAUAAGUCCUUGCUUUAAUGGAAUCCAACAGAGGAUUGAGCAUCA
B19: chr3:100366718:100366719:-_ENSMUSG00000008763_ENSMUST00000008907|mus_mus|FALSE|FALSE (ssRNA)
RNA: GGGAGUUCUACAGUCCGACGAUCGACAAACAUCACAGGAAGCUUACUGCCCAUCAGGCUUGGCACACCACAACAUAGAUGCUAGCAAGAUGAUACCACAGACUUGUACCUUUCGUGAGUCCUGCAGUUGCUGAUUGACUGUUACAACAGAGGAUUGAGCAUCA
B20: chr1:225611761:225611762:-_ENSG00000143815_ENST00000272163|hu_mus|hu_hu_hu_mus_True|48_78 (ssRNA)
RNA: GGGAGUUCUACAGUCCGACGAUCCCAGGCCAUCGGCCUCUGACCACUUCACCCUCAGCAAAUUUCCUACUUGGCAUUUUCUAAAAUUAACCUGCGCGCGCUCCGGCGGGAACUCCAGCCACUCCAGGACAGUCACCAGCAGCCCAACAGAGGAUUGAGCAUCA
B21: 17629441_17629561_2928_CDS_ENSG00000124789_ENST00000262077|human|control|control (ssRNA)
RNA: GGGAGUUCUACAGUCCGACGAUCAGUUAAAGAAACUGGGUUGCUUAAACCAGAAGAAAGUCCAAACUUAAAAUUAUCAUUCUUACUAUCUUUUUUAACUUCUUCGGGCUUAGAUUCAGAUGAAACUCCAAAUUUAAAAUCUCCCAACAGAGGAUUGAGCAUCA
B22: chr8:17156679:17156680:-_ENSG00000003987_ENST00000180173|hu_hu|motif|central (ssRNA)
RNA: GGGAGUUCUACAGUCCGACGAUCAUACUUAAAUUCAUAUGUAAGACCAGGAGAAUGAAUGUUGCUUCUACCUCGUUAGCGGUUAAAUCAGUGUUAGAGAAAAAGUGAGAUACAAGGUUUAGCAUUUUUAAAUAAUGAGGAGAACAACAGAGGAUUGAGCAUCA

biological target: T1, UNK ZnF1-3; test: nsRBNS (natural sequence RNA bind-n-seq); RBNS binding buffer (assumed for nsRBNS): 25 mM Tris pH 7.5, 150 mM KCl, 3 mM MgCl2, 0.01% Triton X-100, 500 ug/ml BSA, 20 U/ml SUPERase-In, 4 C; UNK is unkempt and MSI1 is Musashi-1; names of the RNAs are library labels; protein concentration not given here; high values mean tight binding

Point of comparison: B11, binding signal 0.856 enrichment R. Against it:
- B1 — lower, 0.34 enrichment R
- B2 — lower, 0.681 enrichment R
- B3 — higher, 0.937 enrichment R
- B4 — lower, 0.57 enrichment R
- B5 — higher, 1.79 enrichment R
- B6 — higher, 1.36 enrichment R
- B7 — lower, 0.45 enrichment R
- B8 — lower, 0.595 enrichment R
- B9 — higher, 1.51 enrichment R
- B10 — higher, 1.12 enrichment R
- B12 — higher, 2.71 enrichment R
- B13 — lower, 0.5 enrichment R
- B14 — lower, 0.629 enrichment R
- B15 — higher, 2.25 enrichment R
- B16 — higher, 1.37 enrichment R
- B17 — higher, 2.12 enrichment R
- B18 — higher, 0.887 enrichment R
- B19 — higher, 1.22 enrichment R
- B20 — higher, 1.52 enrichment R
- B21 — higher, 1.43 enrichment R
- B22 — higher, 1.34 enrichment R
